# Reference: the supplement of paper PMC8728848
# The list shows a part of the results.
# B1: GNA (Galanthus nivalis), P30617 (protein)
# chain: MAKASLLILAAIFLGVITPSCLSDNILYSGETLSTGEFLNYGSFVFIMQEDCNLVLYDVDKPIWATNTGGLSRSCFLSMQTDGNLVVYNPSNKPIWASNTGGQNGNYVCILQKDRNVVIYGTDRWATGTHTGLVGIPASPPSEKYPTAGKIKLVTAK
# Tests used:
# Assay in all cases: glycan array binding signal (z-score within array); higher = stronger binding
# Settings in all cases: glycan notation: IUPAC condensed, linker removed
# Neu5Ac(a2-8)Neu5Ac = biological target: Neu5Ac(a2-8)Neu5Ac
# Summary of the method: (§1)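 Negative Z-scores can be read as non-binding. The Z-score is calculated within each array and then averaged across arrays of one protein sequence at different concentrations or buffers and across linkers. Arrays, 3228 in all, were curated from the Consortium for Functional Glycomics database and kept only where the protein sequence was available.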
# [1] = biological target: Neu5Ac(a2-8)Neu5Ac(a2-3)Gal(b1-3)GalNAc(b1-4)[Neu5Ac(a2-3)]Gal(b1-4)Glc
# Summary of the method: as §1
# [2] = biological target: Neu5Ac(a2-8)Neu5Ac(a2-3)Gal(b1-3)GalNAc(b1-4)[Neu5Ac(a2-8)Neu5Ac(a2-3)]Gal(b1-4)Glc
# Summary of the method: as §1
# [3] = biological target: Neu5Ac(a2-8)Neu5Ac(a2-3)Gal(b1-4)Glc
# Summary of the method: as §1
# [4] = biological target: Neu5Ac(a2-8)Neu5Ac(a2-3)Gal(b1-4)GlcNAc
# Summary of the method: as §1
# [5] = biological target: Neu5Ac(a2-8)Neu5Ac(a2-3)[Gal(b1-3)GalNAc(b1-4)]Gal(b1-4)Glc
# Summary of the method: as §1
# [6] = biological target: Neu5Ac(a2-8)Neu5Ac(a2-3)[GalNAc(b1-4)]Gal(b1-4)Glc
# Summary of the method: as §1
# [7] = biological target: Neu5Ac(a2-8)Neu5Ac(a2-8)Neu5Ac
# Summary of the method: as §1
# [8] = biological target: Neu5Ac(a2-8)Neu5Ac(a2-8)Neu5Ac(a2-3)Gal(b1-4)Glc
# Summary of the method: as §1
# [9] = biological target: Neu5Ac(a2-8)Neu5Ac(a2-8)Neu5Ac(a2-3)[Gal(b1-3)GalNAc(b1-4)]Gal(b1-4)Glc
# Summary of the method: as §1
# [10] = biological target: Neu5Ac(a2-8)Neu5Ac(a2-8)Neu5Ac(a2-3)[GalNAc(b1-4)]Gal(b1-4)Glc
# Summary of the method: as §1
# [11] = biological target: Neu5Ac(a2-8)Neu5Ac(a2-8)Neu5Ac(a2-8)Neu5Ac(a2-3)[GalNAc(b1-4)]Gal(b1-4)Glc
# Summary of the method: as §1
# [12] = biological target: Neu5Ac(a2-8)Neu5Gc(a2-3)Gal(b1-4)GlcNAc
# Summary of the method: as §1
# Neu5Ac(b1-6)GalNAc = biological target: Neu5Ac(b1-6)GalNAc
# Summary of the method: as §1
# [13] = biological target: Neu5Ac(b2-6)Gal(b1-4)GlcNAc
# Summary of the method: as §1
# Neu5Ac(b2-6)GalNAc = biological target: Neu5Ac(b2-6)GalNAc
# Summary of the method: as §1
# [14] = biological target: Neu5Ac9Ac(a2-3)Gal(b1-3)GlcNAc
# Summary of the method: as §1
# [15] = biological target: Neu5Ac9Ac(a2-3)Gal(b1-4)GlcNAc
# Summary of the method: as §1
# [16] = biological target: Neu5Ac9Ac(a2-6)Gal(b1-4)GlcNAc
# Summary of the method: as §1
# [17] = biological target: Neu5Gc(a2-3)Gal(b1-3)GlcNAc
# Summary of the method: as §1
# [18] = biological target: Neu5Gc(a2-3)Gal(b1-3)[Fuc(a1-4)]GlcNAc
# Summary of the method: as §1
# Neu5Gc(a2-3)Gal(b1-4)Glc = biological target: Neu5Gc(a2-3)Gal(b1-4)Glc
# Summary of the method: as §1
# [19] = biological target: Neu5Gc(a2-3)Gal(b1-4)GlcNAc
# Summary of the method: as §1
# [20] = biological target: Neu5Gc(a2-3)Gal(b1-4)GlcNAc(b1-3)Gal(b1-4)GlcNAc(b1-2)Man(a1-3)[Neu5Gc(a2-3)Gal(b1-4)GlcNAc(b1-3)Gal(b1-4)GlcNAc(b1-2)Man(a1-6)]Man(b1-4)GlcNAc(b1-4)GlcNAc
# Summary of the method: as §1
# [21] = biological target: Neu5Gc(a2-3)Gal(b1-4)[Fuc(a1-3)]GlcNAc
# Summary of the method: as §1
# [22] = biological target: Neu5Gc(a2-6)Gal(b1-4)GlcNAc
# Summary of the method: as §1
# Neu5Gc(a2-6)GalNAc = biological target: Neu5Gc(a2-6)GalNAc
# Summary of the method: as §1
# [23] = biological target: Neu5Gc(a2-8)Neu5Ac(a2-3)Gal(b1-4)GlcNAc
# Summary of the method: as §1
# [24] = biological target: Neu5Gc(a2-8)Neu5Gc(a2-3)Gal(b1-4)GlcNAc
# Summary of the method: as §1
# [25] = biological target: Neu5Gc(a2-8)Neu5Gc(a2-3)Gal(b1-4)GlcNAc(b1-3)Gal(b1-4)GlcNAc
# Summary of the method: as §1
# [26] = biological target: Neu5Gc(a2-8)Neu5Gc(a2-6)Gal(b1-4)GlcNAc
# Summary of the method: as §1
# [27] = biological target: Neu5Gc(b2-6)Gal(b1-4)GlcNAc
# Summary of the method: as §1
binder,measurement,setting,value
B1,glycan array binding signal (z-score),Neu5Ac(a2-8)Neu5Ac,-0.204
same,glycan array binding signal (z-score),[1],-0.169
same,glycan array binding signal (z-score),[2],-0.181
same,glycan array binding signal (z-score),[3],-0.147
same,glycan array binding signal (z-score),[4],-0.178
same,glycan array binding signal (z-score),[5],-0.155
same,glycan array binding signal (z-score),[6],-0.096
same,glycan array binding signal (z-score),[7],-0.155
same,glycan array binding signal (z-score),[8],-0.146
same,glycan array binding signal (z-score),[9],-0.117
same,glycan array binding signal (z-score),[10],-0.111
same,glycan array binding signal (z-score),[11],-0.103
same,glycan array binding signal (z-score),[12],-0.172
same,glycan array binding signal (z-score),Neu5Ac(b1-6)GalNAc,-0.21
same,glycan array binding signal (z-score),[13],-0.198
same,glycan array binding signal (z-score),Neu5Ac(b2-6)GalNAc,-0.226
same,glycan array binding signal (z-score),[14],-0.096
same,glycan array binding signal (z-score),[15],-0.167
same,glycan array binding signal (z-score),[16],-0.225
same,glycan array binding signal (z-score),[17],-0.158
same,glycan array binding signal (z-score),[18],-0.154
same,glycan array binding signal (z-score),Neu5Gc(a2-3)Gal(b1-4)Glc,-0.093
same,glycan array binding signal (z-score),[19],-0.149
same,glycan array binding signal (z-score),[20],-0.146
same,glycan array binding signal (z-score),[21],-0.074
same,glycan array binding signal (z-score),[22],-0.116
same,glycan array binding signal (z-score),Neu5Gc(a2-6)GalNAc,-0.17
same,glycan array binding signal (z-score),[23],-0.178
same,glycan array binding signal (z-score),[24],-0.173
same,glycan array binding signal (z-score),[25],-0.181
same,glycan array binding signal (z-score),[26],-0.159
same,glycan array binding signal (z-score),[27],-0.2
